Source: patent US20190336582A1 (published 2019)

T1: IL-10 receptor (IL-10R1 and IL-10R2 receptor chains) on mouse cells (mouse, UniProt Q61727 17-575; Q61190 20-349)
T1 sequence (looked up) 1: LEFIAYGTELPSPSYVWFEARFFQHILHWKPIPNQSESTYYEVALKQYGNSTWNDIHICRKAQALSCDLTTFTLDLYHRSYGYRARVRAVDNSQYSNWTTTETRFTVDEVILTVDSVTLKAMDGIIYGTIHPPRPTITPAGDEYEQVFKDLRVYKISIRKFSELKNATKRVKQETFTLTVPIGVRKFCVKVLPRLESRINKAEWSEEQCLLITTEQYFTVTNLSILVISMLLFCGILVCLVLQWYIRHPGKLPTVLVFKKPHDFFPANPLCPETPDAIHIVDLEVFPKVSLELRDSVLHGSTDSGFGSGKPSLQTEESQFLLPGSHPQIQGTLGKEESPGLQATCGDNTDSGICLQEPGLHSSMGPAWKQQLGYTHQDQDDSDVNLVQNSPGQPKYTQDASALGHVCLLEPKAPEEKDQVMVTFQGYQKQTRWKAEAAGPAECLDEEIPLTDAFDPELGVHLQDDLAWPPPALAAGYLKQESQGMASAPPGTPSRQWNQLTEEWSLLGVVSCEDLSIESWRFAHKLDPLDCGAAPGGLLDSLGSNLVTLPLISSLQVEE
T1 sequence (looked up) 2: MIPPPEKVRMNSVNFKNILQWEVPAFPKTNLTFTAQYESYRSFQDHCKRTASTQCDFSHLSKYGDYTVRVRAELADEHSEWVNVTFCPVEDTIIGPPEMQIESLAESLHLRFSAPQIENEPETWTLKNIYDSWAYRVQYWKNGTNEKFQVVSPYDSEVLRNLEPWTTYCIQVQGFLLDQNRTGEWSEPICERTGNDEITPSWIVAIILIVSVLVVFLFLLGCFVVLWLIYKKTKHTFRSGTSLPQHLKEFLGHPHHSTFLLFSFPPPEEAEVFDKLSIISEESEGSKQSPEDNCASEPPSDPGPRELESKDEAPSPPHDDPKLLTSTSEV

T2: IL-10 receptor (IL-10R1 and IL-10R2 receptor chains) on human PBMCs (human, UniProt Q13651 22-578; Q08334 20-325)
T2 sequence (looked up) 1: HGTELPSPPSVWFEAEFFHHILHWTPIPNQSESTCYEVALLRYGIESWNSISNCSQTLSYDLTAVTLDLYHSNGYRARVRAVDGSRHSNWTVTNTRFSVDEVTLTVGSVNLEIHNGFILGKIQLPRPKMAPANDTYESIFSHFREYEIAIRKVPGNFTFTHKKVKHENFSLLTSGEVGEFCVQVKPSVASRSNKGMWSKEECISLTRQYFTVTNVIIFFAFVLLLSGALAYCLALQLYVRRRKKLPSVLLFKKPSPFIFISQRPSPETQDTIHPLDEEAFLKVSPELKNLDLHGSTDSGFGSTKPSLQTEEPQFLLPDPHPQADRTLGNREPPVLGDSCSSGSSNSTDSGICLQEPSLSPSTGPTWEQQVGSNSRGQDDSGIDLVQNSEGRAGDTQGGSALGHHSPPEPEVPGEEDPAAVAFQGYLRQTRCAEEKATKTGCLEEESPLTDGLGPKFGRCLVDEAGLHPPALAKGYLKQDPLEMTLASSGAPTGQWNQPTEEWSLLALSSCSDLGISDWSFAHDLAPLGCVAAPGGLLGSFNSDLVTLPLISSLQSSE
T2 sequence (looked up) 2: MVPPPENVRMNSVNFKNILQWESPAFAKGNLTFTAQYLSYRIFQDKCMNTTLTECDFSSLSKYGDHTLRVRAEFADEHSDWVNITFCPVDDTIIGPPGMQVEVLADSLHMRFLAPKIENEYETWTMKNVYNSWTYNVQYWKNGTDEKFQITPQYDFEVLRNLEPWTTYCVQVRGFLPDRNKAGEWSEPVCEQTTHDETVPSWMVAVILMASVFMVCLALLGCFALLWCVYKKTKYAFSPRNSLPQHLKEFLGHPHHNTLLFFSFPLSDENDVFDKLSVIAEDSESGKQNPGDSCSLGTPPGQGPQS

B1: wtIL-10:linker:M22A, D41F (R1 + R2 mutant) (Fc fusion)
chain: SPGQGTQSENSCTHFPGNLPNMLRDLRDAFSRVKTFFQMKDQLDNLLLKESLLEDFKGYLGCQALSEMIQFYLEEVMPQAENQDPDIKAHVNSLGENLKTLRLRLRRCHRFLPCENKSKAVEQVKNAFNKLQEKGIYKAMSEFDIFINYIEAYMTMKIRNGGSGGGGSGGSPGQGTQSENSCTHFPGNLPNALRDLRDAFSRVKTFFQMKFQLDNLLLKESLLEDFKGYLGCQALSEMIQFYLEEVMPQAENQDPDIKAHVNSLGENLKTLRLRLRRCHRFLPCENKSKAVEQVKNAFNKLQEKGIYKAMSEFDIFINYIEAYMTMKIRNGGGGSGGGGSRTVAAPSVFIFPPSDEQLKSGTASVVCLLNNFYPREAKVQWKVDNALQSGNSQESVTEQDSKDSTYSLSSTLTLSKADYEKHKVYACEVTHQGLSSPVTKSFNRGECGGGGSGGGGSGGGGSGGGGSASTKGPSVFPLAPSSKSTSGGTAALGCLVKDYFPEPVTVSWNSGALTSGVHTFPAVLQSSGLYSLSSVVTVPSSSLGTQTYICNVNHKPSNTKVDKRV[human IgG1 Fc cut from this listing]
B2: D41F:linker:M22A (R1 + R2 mutant) (Fc fusion)
chain: B1 chain with D41F, F211D
B3: M22A:linker:D41F (R1 + R2 mutant), SEQ ID NO: 29 (Fc fusion)
chain: B1 chain with M22A, A192M
B4: M22A, D41F:linker:M22A (R1 + R2 triple mutant) (Fc fusion)
chain: B1 chain with M22A, D41F, F211D
B5: M22A:linker:M22A, D41F (R1 + R2 triple mutant) (Fc fusion)
chain: B1 chain with M22A
B6: Unsubstituted scIL-10 (5 aa linker) Fc (Control) (Fc fusion)
chain: SPGQGTQSENSCTHFPGNLPNMLRDLRDAFSRVKTFFQMKDQLDNLLLKESLLEDFKGYLGCQALSEMIQFYLEEVMPQAENQDPDIKAHVNSLGENLKTLRLRLRRCHRFLPCENKSKAVEQVKNAFNKLQEKGIYKAMSEFDIFINYIEAYMTMKIRNGGSGGSPGQGTQSENSCTHFPGNLPNMLRDLRDAFSRVKTFFQMKDQLDNLLLKESLLEDFKGYLGCQALSEMIQFYLEEVMPQAENQDPDIKAHVNSLGENLKTLRLRLRRCHRFLPCENKSKAVEQVKNAFNKLQEKGIYKAMSEFDIFINYIEAYMTMKIRN[human IgG1 Fc with C220S (EU numbers) cut from this listing]
B7: Unsubstituted scIL-10 (5 aa linker):CL:CH1:Fc (Fc fusion)
chain: SPGQGTQSENSCTHFPGNLPNMLRDLRDAFSRVKTFFQMKDQLDNLLLKESLLEDFKGYLGCQALSEMIQFYLEEVMPQAENQDPDIKAHVNSLGENLKTLRLRLRRCHRFLPCENKSKAVEQVKNAFNKLQEKGIYKAMSEFDIFINYIEAYMTMKIRNGGSGGSPGQGTQSENSCTHFPGNLPNMLRDLRDAFSRVKTFFQMKDQLDNLLLKESLLEDFKGYLGCQALSEMIQFYLEEVMPQAENQDPDIKAHVNSLGENLKTLRLRLRRCHRFLPCENKSKAVEQVKNAFNKLQEKGIYKAMSEFDIFINYIEAYMTMKIRNGGGGSGGGGSRTVAAPSVFIFPPSDEQLKSGTASVVCLLNNFYPREAKVQWKVDNALQSGNSQESVTEQDSKDSTYSLSSTLTLSKADYEKHKVYACEVTHQGLSSPVTKSFNRGECGGGGSGGGGSGGGGSGGGGSASTKGPSVFPLAPSSKSTSGGTAALGCLVKDYFPEPVTVSWNSGALTSGVHTFPAVLQSSGLYSLSSVVTVPSSSLGTQTYICNVNHKPSNTKVDKRV[human IgG1 Fc cut from this listing]
B8: scIL-10:CL:CH1:Fc (scIL10 3aa linker) (Fc fusion)
chain: SPGQGTQSENSCTHFPGNLPNMLRDLRDAFSRVKTFFQMKDQLDNLLLKESLLEDFKGYLGCQALSEMIQFYLEEVMPQAENQDPDIKAHVNSLGENLKTLRLRLRRCHRFLPCENKSKAVEQVKNAFNKLQEKGIYKAMSEFDIFINYIEAYMTMKIRNGGGSPGQGTQSENSCTHFPGNLPNMLRDLRDAFSRVKTFFQMKDQLDNLLLKESLLEDFKGYLGCQALSEMIQFYLEEVMPQAENQDPDIKAHVNSLGENLKTLRLRLRRCHRFLPCENKSKAVEQVKNAFNKLQEKGIYKAMSEFDIFINYIEAYMTMKIRNGGGGSGGGGSRTVAAPSVFIFPPSDEQLKSGTASVVCLLNNFYPREAKVQWKVDNALQSGNSQESVTEQDSKDSTYSLSSTLTLSKADYEKHKVYACEVTHQGLSSPVTKSFNRGECGGGGSGGGGSGGGGSGGGGSASTKGPSVFPLAPSSKSTSGGTAALGCLVKDYFPEPVTVSWNSGALTSGVHTFPAVLQSSGLYSLSSVVTVPSSSLGTQTYICNVNHKPSNTKVDKRV[human IgG1 Fc cut from this listing]
B9: (scIL-10:Fc), hinge truncation mutant 1 (Fc fusion)
chain: SPGQGTQSENSCTHFPGNLPNMLRDLRDAFSRVKTFFQMKDQLDNLLLKESLLEDFKGYLGCQALSEMIQFYLEEVMPQAENQDPDIKAHVNSLGENLKTLRLRLRRCHRFLPCENKSKAVEQVKNAFNKLQEKGIYKAMSEFDIFINYIEAYMTMKIRNGGSGGSPGQGTQSENSCTHFPGNLPNMLRDLRDAFSRVKTFFQMKDQLDNLLLKESLLEDFKGYLGCQALSEMIQFYLEEVMPQAENQDPDIKAHVNSLGENLKTLRLRLRRCHRFLPCENKSKAVEQVKNAFNKLQEKGIYKAMSEFDIFINYIEAYMTMKIRNS[human IgG1 Fc cut from this listing]
B10: wtIL-10:linker:M22A, D41A (R1 + R2 mutant) (Fc fusion)
chain: B1 chain with F211A
B11: wtIL-10:linker:D41A (R1 mutant) (Fc fusion)
chain: B1 chain with A192M, F211A

Tests used:
[1] = molecular target: T1, IL-10 receptor (IL-10R1 and IL-10R2 …); assay: cell-based or functional assay
[2] = molecular target: T2, IL-10 receptor (IL-10R1 and IL-10R2 …); assay: cell-based or functional assay

| Binder | EC50, proliferation of mouse mast cell line MC/9 [1] [pM] | IC50, inhibition of TNFα production in LPS-stimulated C57BL/6 mouse PBMCs (PBMC + LPS) [1] [pM] | also measured |
| --- | --- | --- | --- |
| B1 | 6590 | 2.6 |  |
| B2 |  | 8.9 |  |
| B3 |  | 4.4 |  |
| B4 |  | 65 |  |
| B5 |  | 502 |  |
| B6 | 409 | 0.08 |  |
| B7 | 0.6 | 0.007 |  |
| B8 | 1.5 | 0.03 |  |
| B9 | 494 | 0.06 |  |
| B10 |  |  | EC50 for STAT3 activation (percent pSTAT3+ cells), CD8 Central Memory cells in human PBMCs [2]: 2.46 nM; EC50 for STAT3 activation (percent pSTAT3+ cells), CD8 Effector Memory cells in human PBMCs [2]: 1.9 nM; EC50 for STAT3 activation (percent pSTAT3+ cells), CD8 Terminal Effector cells in human PBMCs [2]: 1.23 nM; EC50 for STAT3 activation (percent pSTAT3+ cells), Monocytes in human PBMCs [2]: 12.5 pM |
| B11 |  |  | EC50 for STAT3 activation (percent pSTAT3+ cells), CD8 Central Memory cells in human PBMCs [2]: 1.12 nM; EC50 for STAT3 activation (percent pSTAT3+ cells), CD8 Effector Memory cells in human PBMCs [2]: 1.08 nM; EC50 for STAT3 activation (percent pSTAT3+ cells), CD8 Terminal Effector cells in human PBMCs [2]: 1.07 nM; EC50 for STAT3 activation (percent pSTAT3+ cells), Monocytes in human PBMCs [2]: 5.09 pM |

Positions count from the first letter of the chain named. In names and notes the source's numbering stands.
